Lines with a small IC50 respond at low doses; where the fit passes the top or lowest dose, that dose stands as a limit. For AUC the same curve is integrated over the 256-fold range of doses and scaled to a fraction; values near 1 show little effect. Where the top dose is marked as inferred, it is not printed in the source and was worked back from the curve model. For some of these results: An entry number marks a drug with two screens in the source, which often give different values.
Experiments:
Assay in all cases: Viability of human cancer cell lines after 72 h of drug (GDSC screen)
Shikonin = compound: CC(C)=CC[C@@H](O)C1=CC(=O)c2c(O)ccc(O)c2C1=O [Shikonin]; conditions: top dose 16 µM; top dose inferred
Experimental: (§1)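 Human cancer cell lines in 384-well plates, medium with 10% serum, drug for 72 h over a 256-fold dose range (nine 2-fold or five 4-fold steps up to the top dose). Adherent lines were fixed and stained with the nucleic acid dye Syto60, suspension lines read with resazurin; signal relative to control wells, capped at 0 and 100%. One two-parameter sigmoid per drug and line, fitted in a mixed model over all curves with the slope shared within a line.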

CGP-082996 (CINK4) = compound: CCNc1cc(NC2CCC(O)CC2)nc(Nc2ccc3c(ccn3Cc3ccccc3)c2)n1 [CGP-082996 (CINK4)]; conditions: top dose 5.12 µM; top dose inferred
Experimental: as §1

HG-5-113-01 = compound: CNC(=O)c1ccc(Nc2cc(Nc3ccccc3S(=O)(=O)C(C)C)c3cc[nH]c3n2)nc1 [HG-5-113-01]; conditions: top dose 10 µM; top dose inferred
Experimental: as §1

A-770041 = compound: COc1cc(-c2nn([C@H]3CC[C@H](N4CCN(C(C)=O)CC4)CC3)c3ncnc(N)c23)ccc1NC(=O)c1cc2ccccc2n1C [A-770041]; conditions: top dose 5.12 µM; top dose inferred
Experimental: as §1

XMD8-85 = compound: COc1cc(N2CCN(C)CC2)ccc1Nc1ncc2c(n1)N(C)c1ccccc1C(=O)N2C [XMD8-85]; conditions: top dose 8 µM; top dose inferred
Experimental: as §1

BMS-536924 = compound: Cc1cc(N2CCOCC2)cc2[nH]c(-c3c(NC[C@@H](O)c4cccc(Cl)c4)cc[nH]c3=O)nc12 [BMS-536924]
Experimental: as §1

BIRB 0796 = compound: Cc1ccc(-n2nc(C(C)(C)C)cc2NC(=O)Nc2ccc(OCCN3CCOCC3)c3ccccc23)cc1 [BIRB 0796]; conditions: top dose 10 µM; top dose inferred
Experimental: as §1

SB-525334 = compound: Cc1cccc(-c2[nH]c(C(C)(C)C)nc2-c2ccc3nccnc3c2)n1 [SB-525334]; conditions: top dose 20 µM; top dose inferred
Experimental: as §1

VX-702 = compound: NC(=O)c1ccc(N(C(N)=O)c2c(F)cccc2F)nc1-c1ccc(F)cc1F [VX-702]; conditions: top dose 2 µM; top dose inferred
Experimental: as §1

Olaparib = compound: O=C(c1cc(Cc2n[nH]c(=O)c3ccccc23)ccc1F)N1CCN(C(=O)C2CC2)CC1 [Olaparib]
Experimental: as §1

Wee1 inhibitor 681640 = compound: O=C1NC(=O)c2c1c(-c1ccccc1Cl)cc1[nH]c3ccc(O)cc3c21 [Wee1 inhibitor 681640]; conditions: top dose 2 µM; top dose inferred
Experimental: as §1

[1] = top dose 4 µM, screen: GDSC drug entry 1091, top dose inferred
[2] = top dose 5.12 µM, screen: GDSC drug entry 62
[3] = top dose 5 µM, screen: GDSC drug entry 1017, top dose inferred
[4] = top dose 10 µM, screen: GDSC drug entry 1495

Row | Cell Line | AUC (Shikonin) | IC50 (Shikonin) | AUC (CGP-082996 (CINK4)) | IC50 (CGP-082996 (CINK4)) | AUC (HG-5-113-01) | IC50 (HG-5-113-01) | AUC (A-770041) | IC50 (A-770041) | AUC (XMD8-85) | IC50 (XMD8-85) | AUC (BMS-536924; [1]) | IC50 (BMS-536924; [1]) | AUC (BMS-536924; [2]) | IC50 (BMS-536924; [2]) | AUC (BIRB 0796) | IC50 (BIRB 0796) | AUC (SB-525334) | IC50 (SB-525334) | AUC (VX-702) | IC50 (VX-702) | AUC (Olaparib; [3]) | IC50 (Olaparib; [3]) | AUC (Olaparib; [4]) | IC50 (Olaparib; [4]) | AUC (Wee1 inhibitor 681640) | IC50 (Wee1 inhibitor 681640)
1 | TE-5 (oesophagus, adherent) | 0.517 | 1.12 µM | 0.967 | > 5.12 µM | 0.846 | 9.01 µM | 0.931 | > 5.12 µM | 0.873 | > 8 µM | 0.981 | > 4 µM | 0.914 | > 5.12 µM | 0.982 | > 10 µM | 0.964 | > 20 µM | 0.984 | > 2 µM | 0.984 | > 5 µM | 0.954 | > 10 µM | 0.98 | > 2 µM
2 | TE-8 (oesophagus, adherent) | 0.473 | 0.842 µM | 0.896 | > 5.12 µM | 0.721 | 2.79 µM | 0.478 | 0.277 µM | 0.977 | > 8 µM | 0.824 | 2.61 µM | 0.576 | 0.524 µM | 0.981 | > 10 µM | 0.948 | > 20 µM | 0.984 | > 2 µM | 0.975 | > 5 µM | 0.898 | > 10 µM | 0.929 | > 2 µM
3 | TE-9 (oesophagus, adherent) | 0.349 | 0.375 µM | 0.943 | > 5.12 µM | 0.757 | 3.57 µM | 0.922 | > 5.12 µM | 0.894 | > 8 µM | 0.919 | > 4 µM | 0.793 | 2.45 µM | 0.966 | > 10 µM | 0.987 | > 20 µM | 0.987 | > 2 µM | 0.987 | > 5 µM | 0.954 | > 10 µM | 0.927 | > 2 µM
4 | TE-12 (oesophagus, suspension) | 0.532 | 1.24 µM | 0.785 | 2.72 µM | 0.775 | 4.86 µM | 0.542 | 0.427 µM | 0.831 | 6.64 µM | 0.788 | 2.19 µM | 0.429 | 0.196 µM | 0.961 | > 10 µM | 0.967 | > 20 µM | 0.977 | > 2 µM | 0.978 | > 5 µM | 0.975 | > 10 µM | 0.932 | > 2 µM
5 | TGBC1TKB (biliary tract, adherent) | 0.591 | 1.77 µM | 0.843 | 3.6 µM | 0.684 | 2.04 µM | 0.775 | 2.01 µM | 0.929 | > 8 µM | 0.879 | > 4 µM | 0.791 | 2.28 µM | 0.986 | > 10 µM | 0.963 | > 20 µM | 0.986 | > 2 µM | 0.989 | > 5 µM | 0.978 | > 10 µM | 0.965 | > 2 µM
6 | TGW (neuroblastoma, adherent) | 0.389 |  | 0.963 | > 5.12 µM | 0.807 | 4.27 µM | 0.867 | 3.55 µM | 0.975 | > 8 µM | 0.892 | 3.53 µM | 0.647 | 0.764 µM | 0.991 | > 10 µM | 0.833 | 10.4 µM | 0.99 | > 2 µM | 0.992 | > 5 µM | 0.988 | > 10 µM | 0.946 | > 2 µM
7 | TK10 (kidney, adherent) | 0.505 | 1.04 µM | 0.883 | > 5.12 µM | 0.763 | 4.32 µM | 0.604 | 0.656 µM | 0.894 | > 8 µM | 0.924 | > 4 µM | 0.745 | 1.9 µM | 0.981 | > 10 µM | 0.965 | > 20 µM | 0.975 | > 2 µM | 0.982 | > 5 µM | 0.98 | > 10 µM | 0.944 | > 2 µM

Reference: the supplement of paper PMC4967469
